Measurements: PubChem BioAssay AID1345083 (National Center for Advancing Translational Sciences (NCATS), 2018)
Hit rate of the full screen: of about 94,000 compounds, about 6,200 (6.6%) were called active. Inconclusive results, whose numbers are uncertain, are shown with a selection of clear calls. Calls follow the shape of the dose curve; as a rule, active = well fitted inhibition curve with a large enough effect; inconclusive = small, poorly fitted or top-dose-only effect; inactive = flat fitted curve, though single readings scatter. Potencies of inconclusive entries are doubtful fits and often do not repeat.

Assay: Cytotoxic Profiling in HEK 293 Cell Line of Diverse Libraries Using Quantitative High-Throughput Screening; also: nearly all actives have a fitted effect of over 60% in size
Conditions: HEK 293 viability, ATP luminescence (CellTiter-Glo), 48-72 h; activity change, negative = cytotoxicity: at 115 µM (top of the series) unless noted; series mostly up to 115 µM
How it was run: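 HEK 293 cells seeded at 250 cells/well were exposed to compound for 48 or 72 hr at 37 degree Celsius. Viability taken as ATP content by CellTiter-Glo luminescence.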
% is scaled to controls: 0 for no effect and ±100 for the full control effect; potency is read from the fitted curve at half-maximal effect; tags tell the direction and shape of the fitted curve.

SMILES	Potency	outcome	activity change, negative = cytotoxicity
O=C(CN1C(=O)NC(c2ccccc2Cl)C2=C1COC2=O)NCc1ccccc1Cl (stereo not given)	inconclusive: 35.5 µM [inhibitor, full curve]	–	–
CN(C)c1ccc2ncc(Nc3ccc(Cl)cn3)n2n1	inconclusive: 126 µM [inhibitor, partial curve, poor fit]	–	–
COC(=O)C1=C(C)N=C2SC=C(CC(=O)N3CCC(C)CC3)N2C1c1cccc(OC)c1 (stereo not given)	active: 39.8 µM	–	–
Cc1nn2cc(CCNC(=O)C3NCCc4[nH]cnc43)nc2s1 (stereo not given)	–	inactive	–
COCC(=O)N1CC[C@H](c2nc3ccc(C(F)(F)F)cc3[nH]2)C1	–	–	inactive: -0.0658% [at 172 µM]
Cc1cccc(NC(=O)N2CCC(CCNC(=O)C3(c4ccccc4)CC3)CC2)c1	inconclusive: 79.4 µM [inhibitor, partial curve, poor fit]	–	–
COC(=O)C1=C(C)N(Cc2cccc(F)c2)C(=O)CC1c1ccccc1Cl (stereo not given)	inconclusive: 89.1 µM [inhibitor, single point]	–	–
Cn1ncc2c(C(=O)NCc3ccc(F)cc3)cc(-c3cccc(F)c3)nc21	inconclusive: 31.6 µM [inhibitor, full curve, poor fit]	–	–
O=C(Nc1cccn2nc(C3CCC3)nc12)C1CCC1	inconclusive: 89.1 µM [inhibitor, single point]	–	–
CCc1noc(-c2ccn3c(CNC(=O)c4ccc(N(CC)CC)cc4)nnc3c2)n1	inconclusive: 2.82 µM [inhibitor, full curve, poor fit]	–	–
COc1ccc(CC(=O)N2CCC[C@H]2c2nc(-c3ccccc3Cl)no2)cc1	inconclusive: 44.7 µM [inhibitor, partial curve, poor fit]	–	–
COCCC1(CO)CCCN(c2ncc(F)c(N3CCCC3)n2)C1 (stereo not given)	inconclusive: 12.6 µM [inhibitor, full curve]	–	–
CCC(CC)N(CC)C(=O)CC1COc2ccc(C(=O)N(C)C)cc2N1C (stereo not given)	inconclusive: 89.1 µM [inhibitor, single point]	–	–
O=C(NCc1ccc(F)cc1)c1nc(-c2ccc(F)cc2)c2cnccn12	inconclusive: 89.1 µM [inhibitor, single point]	–	–
CCOC(=O)C(Cc1cccc(N2CCN([S+](=O)([O-])c3ccccc3Cl)CC2)c1)OC (stereo not given)	inconclusive: 50.1 µM [inhibitor, partial curve, poor fit]	–	–
Cc1noc(C)c1S(=O)(=O)N1CCN(c2ccc3nnc(C4CC4)n3n2)CC1	–	–	inactive: -3.87%
CCc1noc(-c2cn(C3CCN(C(=O)c4ccc5[nH]ccc5c4)CC3)nn2)n1	inconclusive: 100 µM [inhibitor, single point]	–	–
N#Cc1ccc(CN2CCC3(CNc4ccccc4[S+](=O)([O-])N3)C2)cc1 (stereo not given)	inconclusive: 31.6 µM [inhibitor, partial curve, poor fit]	–	–
CC(=O)NC1(C)CCN(Cc2cnc(-c3cccc(C(F)(F)F)c3)s2)CC1	inconclusive: 89.1 µM [inhibitor, partial curve]	–	–
O=C(c1n[nH]c2ccccc12)N1CC2CC(C1)[C@H]1CCCC(=O)N1C2 (stereo not given in full)	–	–	inactive: -4.97%
O=C(Nc1ccc(Cl)cc1)N1CCn2c(nn(-c3ccc(C(F)(F)F)cc3)c2=O)C1	inconclusive: 50.1 µM [inhibitor, partial curve, poor fit]	–	–
CCS(=O)(=O)N1CC(F)(F)C[C@H]1c1nc(C2CC2)no1	–	–	inactive: -6.97%

SMILES	Potency	outcome	activity change, negative = cytotoxicity
O=C(NCc1ccccc1Cl)c1ccc(CN2C(=O)NC3(CCOCC3)C2=O)cc1	–	–	inactive: -21.6%
CCc1ccc(N2CC(c3noc(Cc4ccccc4F)n3)CC2=O)cc1 (stereo not given)	inconclusive: 31.6 µM [inhibitor, full curve]	–	–
CCOCC(=O)N1c2ccccc2CC1c1noc(C(C)C)n1 (stereo not given)	inconclusive: 50.1 µM [inhibitor, partial curve, poor fit]	–	–
COc1cccc(CCC(=O)N2CCCN(c3cc(-c4ccc(C)c(C)c4)[nH]n3)CC2)c1	inconclusive: 50.1 µM [inhibitor, partial curve, poor fit]	–	–
c1cc2nnc(C3CCC3)n2nc1N1CCOCC1	inconclusive: 70.8 µM [inhibitor, partial curve]	–	–
COc1ccccc1C(=O)N1CCCN(Cc2ccc3c(c2)OCO3)c2ccccc21	inconclusive: 50.1 µM [inhibitor, partial curve, poor fit]	–	–
CCN1CCN(c2nc3c(s2)CN(C(=O)Cc2cccnc2)CC3)CC1	inconclusive: 31.6 µM [inhibitor, full curve, poor fit]	–	–
Cn1nccc1OCc1cn2c(=O)n(C)cc(-c3cccc(C(F)(F)F)c3)c2n1	inconclusive: 100 µM [inhibitor, partial curve, poor fit]	–	–
COc1ccc2c(c1)OC[C@@H]1CN(CC(C)(C)O)C(=O)CCN(C(=O)Cc3ccccc3)[C@H]21	–	–	inactive: -2.77%
CCN1C(=O)C2CC3(CCN(C(=O)c4cc(C)n(CCOC)c4C)CC3)CN2C1=O (stereo not given)	–	–	inactive: -1.79%
CCN(Cc1cccc2cnccc12)CC1CCCN(CCc2cccc(F)c2)C1 (stereo not given)	active: 17.8 µM	–	–
COc1ccc2ccc(OCc3nc(C(=O)N4CCC(=O)NCC4C)co3)cc2c1 (stereo not given)	active: 44.7 µM	–	–
COC1CN(c2cccc(F)c2)C12CCN(C(=O)C1(c3ccccc3)CC1)CC2 (stereo not given)	inconclusive: 44.7 µM [inhibitor, partial curve, poor fit]	–	–
CN(C)C[C@@H]1CN(Cc2ccccc2)C[C@H]1NC(=O)c1cccn1C	inconclusive: 50.1 µM [inhibitor, partial curve, poor fit]	–	–
O=C(CN1CC2CC(C1)[C@H]1CCCC(=O)N1C2)N1CCN(c2ccc(Cl)cc2)CC1 (stereo not given in full)	–	–	inactive: -19.6%
CCOCCCNC(=O)C1(CCO)CC12CCOCC2 (stereo not given)	–	–	inactive: 4.87%
COc1ccc(C(=O)N2CCC[C@H](n3c(=O)n(CC4CC4)c4cccnc43)C2)cc1F	inconclusive: 50.1 µM [inhibitor, partial curve, poor fit]	–	–
O=C(NCC(F)(F)F)c1cc(-c2cc(Cl)cc(Cl)c2)c2cccn2n1	active: 39.8 µM	–	–
Cc1noc(C)c1CN1CCCC(COc2ccccc2C(=O)N2CCOCC2)C1 (stereo not given)	–	–	inactive: -0.601%
Cc1ccc(C(=O)N2CCCC(c3nc(CCOCC4CCCC4)no3)C2)cn1 (stereo not given)	inconclusive: 89.1 µM [inhibitor, partial curve, poor fit]	–	–
CC(C)n1nc(OC(C)(C)C(=O)NCCc2cccnc2)c2cc(CN3CCOCC3)ccc21	–	inactive	–
Cc1noc2c(-c3cccnc3NC3CCC(O)CC3)cc(-c3ccccc3)nc12 (stereo not given)	inconclusive: 100 µM [inhibitor, partial curve]	–	–

SMILES	Potency	outcome	activity change, negative = cytotoxicity
COc1cccc(-c2ccc(C(=O)NCCCn3ccnc3C(C)C)cn2)c1	inconclusive: 79.4 µM [inhibitor, partial curve, poor fit]	–	–
O=C(C[C@@H]1CCNC[C@@H]1Cc1cc(-c2ccccc2)on1)NC1CC1	–	–	inactive: -0.0713% [at 172 µM]
COc1ccc(S(=O)(=O)N2CCc3c(C(=O)NCc4ccccn4)cccc32)cc1	active: 35.5 µM	–	–
CN1C[C@H](O)C[C@H]1c1nnc2n1CCN(C(=O)Cc1ccccc1)CC2	–	–	inactive: -7.01%
O=C1CCN(CC(O)Cc2ccccc2)c2ccccc2CN1Cc1ccccc1 (stereo not given)	inconclusive: 50.1 µM [inhibitor, partial curve, poor fit]	–	–
CCc1ccc(CN2CCCC(CNC(=O)c3cccc(OC)c3OC)C2)o1 (stereo not given)	inconclusive: 89.1 µM [inhibitor, single point]	–	–
Cn1nccc1C(O)c1cc2n(n1)CCN(C/C=C/c1ccccc1)C2 (stereo not given)	inconclusive: 89.1 µM [inhibitor, single point]	–	–
OCC1CN(Cc2ccc(F)cc2Cl)CC12CCNCC2 (stereo not given)	inconclusive: 89.1 µM [inhibitor, single point]	–	–
COCCN1C(=O)c2cccn2CC1CNC(=O)c1ccc(F)cc1 (stereo not given)	–	–	inactive: -0.576%
Cn1cnc(C(=O)N2C[C@@H](COc3ccccc3)[C@H](C(N)=O)C2)c1	–	–	inactive: -30.6%
Cc1ccc(OCc2nc(C3CCCCN3C(=O)NC3CCCCC3)no2)cc1 (stereo not given)	inconclusive: 50.1 µM [inhibitor, partial curve, poor fit]	–	–
CN(Cc1ccccc1)C(=O)C[C@@H]1CCNC[C@@H]1Cc1cc(-c2ccc(C(C)(C)C)cc2)on1	active: 14.1 µM	–	–
CC(C)NC(=O)C[C@@H]1c2nc(NC(=O)c3ccc(C(C)(C)C)cc3)sc2C[C@@H]2[C@](C)(CO)[C@H](O)CC[C@]21C	active: 39.8 µM	–	–
CCOc1cccc(CNC(=O)c2cc3n(n2)CC(c2ccc(Cl)cc2)OC3)c1 (stereo not given)	inconclusive: 39.8 µM [inhibitor, partial curve]	–	–
O=[S+]([O-])(NC1CCN(c2ccc3nnc(-c4ccccc4)n3n2)CC1)c1ccccc1	inconclusive: 50.1 µM [inhibitor, partial curve, poor fit]	–	–
COC(=O)C1=C(C)N=C2SC=C(CC(=O)NCC3CCCO3)N2C1c1cc(OC)ccc1OC (stereo not given)	–	–	inactive: -11.3%
CCCCCNC(=O)Cc1csc2nc(C)c(-c3cc(C)n(-c4ccc(F)cc4)n3)c(=O)n12	inconclusive: 89.1 µM [inhibitor, single point]	–	–
CCOc1ccccc1NC(=O)N1CCC(Cc2nc(-c3ccccc3)n[nH]2)C1 (stereo not given)	inconclusive: 39.8 µM [inhibitor, full curve, poor fit]	–	–
CC(=O)NCCNC(=O)[C@@H]1Cc2cn(Cc3cc(C)on3)c3cccc(c23)[C@H](CC(C)C)N1	inconclusive: 89.1 µM [inhibitor, single point]	–	–
COc1ccc(CN2CCCC3(CC(c4ccccc4)=NO3)C2)cc1 (stereo not given)	inconclusive: 89.1 µM [inhibitor, single point]	–	–
COc1ccc(-c2cc(C[C@@H]3CC[C@H](O)[C@@H](CN(Cc4cccc(OC)c4)Cc4cccc(OC)c4)O3)no2)cc1	inconclusive: 22.4 µM [inhibitor, full curve]	–	–
